Data: PubChem BioAssay AID1508623 (National Center for Advancing Translational Sciences (NCATS), 2021)
Screen size: about 48,000 compounds; about 450 (0.94%) were called active. Not shown: some 19% with an inconclusive outcome. Calls follow the shape of the dose curve; as a rule, active = well fitted inhibition curve with a large enough effect; inconclusive = small, poorly fitted or top-dose-only effect; inactive = no such curve, though single readings can be large or run the other way. Some of the results follow.

Assay: Primary qHTS for Identification of Small Molecule Inhibitors of Huntingtin Promoter Activity; also: nearly all actives have a fitted effect of over 50% in size
Details: HEK293 HTT promoter firefly luciferase reporter (activity 0% = vehicle and -100% = no light), 24 h; series mostly up to 57.5 µM; activity change, negative = inhibition: at the top concentration
In short: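 Quantitative HTS used concentration series of up to 57.5 uM final on HEK293 luciferase reporter cells, 24 h at 37 degrees C. Readout was Dual-Glo firefly luminescence.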

Activity change, negative = inhibition, inactive:
Cc1cc(C)cc(-n2ccnc2SCC(=O)Nc2cccc3ccccc23)c1 -28.1%, CNC(=O)C1CCC(Cn2c(=O)c3sccc3n(Cc3cc(C)ccc3C)c2=O)CC1 (stereo not drawn) 1.69%, COc1ccc(N2C(=O)NC(NS(=O)(=O)c3ccc(Cl)cc3)(C(F)(F)F)C2=O)cc1 (stereo not drawn) -7.47%, Cc1ccccc1-c1nc(CN2CCCC(C(=O)NCc3ccc(Cl)cc3)C2)c(C)o1 (stereo not drawn) -8.72%, CCN(C(=O)Cn1c(C(=O)OC)cc2sc(Cl)cc21)c1cccc(C)c1 -5.04%, COc1ccc([N+](=O)[O-])cc1NC(c1nnc(-c2ccccc2)o1)c1ccccc1F (stereo not drawn) -13%, COc1ccc(C2C(=O)N(C3CCCCC3)CC(=O)N2CCc2ccc(C)cc2)cc1OC (stereo not drawn) 8.77%, NC(CS)C(=O)O (stereo not drawn) 5.1%, COc1ccc(NC(=O)CCc2c(C)nc3c(c2C)c(=O)n(C)c(=O)n3C)c(OC)c1 -13.9%, CCc1ccccc1NC(=O)Cn1nc2c3cc(F)ccc3n(Cc3cccc(C)c3)cc-2c1=O -8.73%, CCOC(=O)c1c(NC(=O)c2cc(-c3ccccc3OC)on2)sc(C)c1C -7.81%, CCc1ccc2oc(C(=O)NCC(c3ccc(OC)cc3)N3CCCCC3)c(C)c2c1 (stereo not drawn) -9.02%, Cc1cc(NC(=O)C2CCN(S(=O)(=O)c3c(C)noc3C)CC2)ccc1Br -29.8%, Cc1cc(C)c2nc(N(Cc3cccnc3)C(=O)CCS(=O)(=O)c3ccccc3)sc2c1 4.97%, COc1ccc(-c2nc3nc(C)cc(C)n3c2Nc2c(C)cccc2C)cc1 -17.8%, COc1ccccc1CNC(=O)C1(c2cccs2)CCOCC1 -2.44%, CCc1ccc(OCC(=O)Nc2ccc3c(c2)c2ccccc2n3CC)cc1 -5.78%, N#Cc1c[nH]n2c(NC3CCCCC3)c(-c3ccc(F)cc3)nc12 -5.52%, Cc1cccc(-n2ccnc2SCC(=O)Nc2cccc3ccccc23)c1 -23.9%, Cc1cc(C)cc(OCCSc2nc3ccc(NC(=O)c4ccc5c(c4)OCO5)cc3s2)c1 -19.8%, O=C(COc1ccccc1Cl)Nc1ccc(OCc2cc(=O)n3ccsc3n2)cc1 -6.73%, COc1ccc(NC(=O)Cn2cc(S(=O)(=O)N3CCC(C)CC3)c3ccccc3c2=O)cc1Cl -16.6%, COc1ccc2c(c1)c1c(c(=O)n(-c3ccc(C)cc3)c(=O)n1CC(=O)c1ccc(Cl)cc1)n2C -1.16%, Cc1ccc(C)c(CNS(=O)(=O)c2ccc3c(c2)C(C)(C)C(=O)N3C)c1 -21.3%, CC1CCN(S(=O)(=O)c2ccc3c(c2)N(CC(=O)NCCN(C)C)C(=O)CO3)CC1 -6.46%, CCOc1ccc(C(=O)OCCN(CC)CC)cc1 6.11%, CCOc1ccc(NC(=O)c2ccc3[nH]c(C)cc(=O)c3c2)cc1 -7.58%, COc1ccc2c(CNCCc3ccccc3C)c(C(=O)O)n(Cc3ccccc3C)c2c1 3.08%, CCOC(=O)c1c(S(=O)(=O)N2CCCC(C(=O)NCc3ccc(F)cc3)C2)c(C)n(CC)c1C (stereo not drawn) -12.6%, Cc1ccc2c(c1)cc1c(=O)n(CC(=O)N(C)c3ccccc3)nc(C)n12 -3.03%, COc1cccc(-c2nnc(SCC(=O)N3CCCCC3)o2)c1 51.6%, O=C(OCc1cc(=O)n2nc(-c3cccs3)sc2n1)c1cccc(Cl)c1 -1.81%, OC1CCC(Nc2ncc3nc(Nc4c(F)cc(F)cc4F)n([C@@H]4CCOC4)c3n2)CC1 (stereo partly drawn) -5.32%, CCOC(=O)c1cccc(NC(=O)c2ccc3c(c2)nnn3CC)c1 -18.2%, Cc1ccc(C)c(Cn2c(=O)n(CC3CCC(C(=O)N4CCOCC4)CC3)c(=O)c3sccc32)c1 (stereo not drawn) 1.84%, Cc1ccc(NC(=O)Cn2c(=O)c(C(F)(F)F)nc3ccccc32)cc1C 16.1%, CCOC(=O)c1ccccc1NC(=O)Cn1nnc2sc3c(c2c1=O)CCCC3 4.38%, Cc1ccc(C(C(=O)NC2CCCCC2)N(C)Cc2ccccc2)cc1 (stereo not drawn) -9.64%, Cc1oc2c(c1C(=O)Nc1ccc(F)c(F)c1)C1=NCCN1C=N2 -9.04%, CCc1cccc(CC)c1NC(=O)CCS(=O)(=O)c1ccc(Br)s1 -10.8%, CCOC(=O)c1ccccc1Nc1nc2ccc(C)cc2n2nnnc12 2.8%, Cc1cccc(C)c1NC(=O)c1nc(S(C)(=O)=O)ncc1N(Cc1ccc(C(C)(C)C)cc1)Cc1ccco1 -32.7%, Cn1cc(-c2cc3n(n2)CCC(=O)N3CCCC(=O)NCc2ccc(F)cc2)c2ccccc21 -24.5%, CCOc1ccc(NC(=O)c2oc3ccccc3c2NC(=O)C2CCCCC2)cc1 -11.9%, Cc1ccc(NC(=O)CSc2nc3nc(C)c(Cc4ccccc4)c(C)n3n2)cc1 3.64%, CC(C)CNC(=O)N1CCN(S(=O)(=O)c2ccc3c(ccn3C)c2)CC1 -31.9%, Cc1ccc2oc3c(c(=O)c2c1)C(c1ccccc1F)N(c1ccccn1)C3=O (stereo not drawn) -13.6%, COc1ccc(Cn2ccnc2SCC(=O)Nc2ccc3c(c2)OCO3)cc1 -23%, COc1ccc(-c2cc(C(F)(F)F)n3nc(C(=O)Nc4cc(C(F)(F)F)ccc4Cl)cc3n2)cc1OC -6.83%, Cc1ccc(NC(=O)N2CC3CCCN3c3ccccc32)cc1C (stereo not drawn) -31.8%, COc1ccc(C(=O)Nc2ccc(NC(=O)c3cccs3)cc2)cc1OC -13.7%, Cc1cccc(C(=O)NCC(c2cccs2)S(=O)(=O)c2cccs2)c1 (stereo not drawn) -18.1%, Cc1ccc(-c2nc3n(n2)C(c2ccccc2Cl)C=C(c2ccc(Cl)cc2)N3)cc1 (stereo not drawn) 5.82%, CC1CCN(S(=O)(=O)c2ccc3c(c2)CCN3C(=O)Nc2cccc(Br)c2)CC1 -12%, CCOC(=O)c1ccc(CN(Cc2ccc(C)cc2)S(=O)(=O)c2ccc(F)c(C(=O)Nc3ccc(C)c(F)c3)c2)cc1 -22.7%, Cc1ccc(S(=O)(=O)NC2(C(F)(F)F)NC(=O)N(c3ccc(F)cc3)C2=O)cc1 (stereo not drawn) -12.6%, CCOCCc1nn2c(=O)cc(COC(=O)c3ccccc3NC(=O)c3ccccc3F)nc2s1 4.57%, CCOc1ccc(C(=O)c2cn(CC(=O)Nc3ccc(OC)cc3)c3cc4c(cc3c2=O)OCO4)cc1 -1.53%, O=C(NCC(c1ccc2c(c1)OCO2)N1CCN(c2ccccc2)CC1)C(=O)Nc1ccc(F)cc1 (stereo not drawn) 72.1%, CCOC(=O)c1c(C)[nH]c(C)c1S(=O)(=O)N1CCCC(C(=O)Nc2ncccc2C)C1 (stereo not drawn) 26.7%, CC(C)CCn1c(=O)c2cccnc2n(CC(=O)Nc2ccccc2)c1=O -18.2%, CCS(=O)(=O)N1CC(=O)N(c2cccc(Cl)c2)C(C)(C(=O)NC2CCCCCC2)C1 (stereo not drawn) -17.1%, Cc1oc(-c2ccc(C(=O)NCCC(C)C)cc2)nc1CS(=O)(=O)c1ccccc1 -2.9% [at 11.5 µM], COC(=O)c1sccc1S(=O)(=O)N(CC(=O)NCc1ccc(C)cc1)c1ccccc1 -12.4%, N#Cc1c[nH]n2c(NC3CCCC3)c(-c3cccc(Br)c3)nc12 -19.7%, CCOCCCn1c(=N)c(C(=O)NC(C)c2ccccc2)cc2c(=O)n3cc(C)ccc3nc21 (stereo not drawn) 6.15%, CCc1cccc(CC)c1NC(=O)CN(CC(=O)O)CC(=O)O 2.5%, Cc1ccn2c(NC(=O)c3cccc(Cl)c3)c(-c3ccccc3)nc2c1 5.91%, CCCC(=O)N1CCc2cc(OC)c(OC)cc2C1COc1ccccc1OC (stereo not drawn) -21.1%, CCOC(=O)Cc1cc(C(=O)Nc2ccc(Br)cc2)sc1-c1ccc(C)cc1 -13.6%, Cc1nc2sc(C)c(C)n2c(=O)c1S(=O)(=O)N1CCN(c2ccccc2F)CC1 0.759%, Cc1cc(C)cc(OCC(=O)Nc2nonc2-c2ccc(Br)cc2)c1 -18%, Cc1ccc2c(Sc3ccc(Cl)cc3)c(C(=O)NCCC(C)C)[nH]c2c1 -16.8%, Cc1c(C(=O)N(Cc2ccc(N(C)C)cc2)CC2CCCO2)oc2ccccc12 (stereo not drawn) -0.695%, CCc1nnc(SCc2nc(-c3ccccc3Cl)oc2C)c2cc3sc(C)cc3n12 -2.31%, O=C(Nc1nc2c(F)cccc2s1)c1ccc(S(=O)(=O)N2CCOCC2)cc1 -16.5%, COc1ccc2[nH]cc(CCNC(=O)Nc3ccccc3)c2c1 -9.58%, COc1ccc(CN(C(=O)c2ccccc2F)C2CCS(=O)(=O)C2)cc1 (stereo not drawn) -12.5%, Cc1ccc(NC(=O)CN2C(=O)c3cccnc3Sc3ccccc32)cc1C 35.5%, CCCN(Cc1cccs1)C(=O)Nc1cc(C)cc(C)c1 -9.3%, Cc1nn(C)c2c1c(-c1ccccc1)cc(=O)n2Cc1ccc(F)cc1Cl -18.2%, CCN(CC)C(=O)Cn1c(=O)n(-c2ccc(Cl)cc2)c(=O)c2c3c(sc21)CCCCC3 -9.48%, COc1ccc(-c2nc3ccccc3o2)cc1NC(=O)c1cccc2c(Cl)cccc12 5.05%, CCOc1ccc(N2CC(NC(=O)Cc3cccs3)CC2=O)cc1 (stereo not drawn) 4.53%, COc1ccc(NC(=O)CC2C(=O)N(c3ccc(OC)cc3)C(=O)N2Cc2ccc(OC)c(OC)c2)cc1 (stereo not drawn) 0.337%, CCOc1ccc(CCNC(=O)CCn2c(=O)c3cccn3c3ccc(F)cc32)cc1OCC 0.816%, CCOc1ccc(NC(=O)CCc2c(C)nc3c4c(C)cc(C)nc4nn3c2C)cc1 19%, CN(Cc1ccccc1)c1ccc2cc(S(=O)(=O)N3CCCCC3)ccc2n1 -17.4%, COc1ccc2cc(-c3nc(-c4ccc(N(C)C)cc4)no3)c(=O)oc2c1 5%, Cc1ccc(C)c(CSc2cn(CC(=O)N3CCCC3)c3ccccc23)c1 -3.52%, NC(=O)c1ccc(I)c([N+](=O)[O-])c1 26.2%, COc1cc(NC(=O)CSc2cc(=O)n(C)c3ccccc23)cc(OC)c1OC -41%, CC(NCc1ccc2c(c1)n(C)c(=O)n2C)c1ccccc1 (stereo not drawn) -13.2%, Cc1ccc(-c2cn3c(n2)sc2cc(C(=O)NC4CCCCCC4)ccc23)cc1 22.8%, COCCCNC(=O)C1CCN(Cc2cc3ccccc3n2Cc2cccc(Cl)c2)CC1 -4.79%, Cc1cc(C)n2nc(CNC(=O)c3cccc(N(C)C)c3)nc2n1 47.3%, CCC12CN3CC(CC)(CN(C1)C3c1c[nH]c3ccccc13)C2=O (stereo not drawn) -26.1%, COc1ccc(Br)cc1CNC(=O)C1CCN(c2nnc(-n3cccc3CNc3ccc(C)cc3)s2)CC1 -30.7%
